Measurements as given in the supplement of paper PMC8728848.
The list shows a part of the results.

How the values were obtained:
Experiment in all cases: glycan array binding signal (z-score within array); higher = stronger binding
Conditions in all cases: glycan notation: IUPAC condensed, linker removed
[1] = molecular target: GlcNAc(a1-4)Gal(b1-3)GlcNAc
Procedure, shortened: (§1)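 The binding signal is a Z-score computed within each array. Data were drawn from 3228 arrays in the Consortium for Functional Glycomics database, restricted to those with a known protein sequence. Scores were averaged over arrays of the same protein sequence at different concentrations or buffers, and over linkers, and negative values can be taken as non-binding.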

[2] = molecular target: GlcNAc(a1-4)Gal(b1-4)GalNAc
Procedure, shortened: as §1

[3] = molecular target: GlcNAc(a1-4)Gal(b1-4)GlcNAc
Procedure, shortened: as §1

[4] = molecular target: GlcNAc(a1-4)Gal(b1-4)GlcNAc(b1-3)Gal(b1-4)Glc
Procedure, shortened: as §1

[5] = molecular target: GlcNAc(a1-4)Gal(b1-4)GlcNAc(b1-3)Gal(b1-4)GlcNAc
Procedure, shortened: as §1

[6] = molecular target: GlcNAc(a1-4)Gal(b1-4)GlcNAc(b1-3)Gal(b1-4)GlcNAc(b1-3)Gal(b1-4)GlcNAc
Procedure, shortened: as §1

[7] = molecular target: GlcNAc(a1-4)Gal(b1-4)GlcNAc(b1-3)Gal(b1-4)[Fuc(a1-3)]GlcNAc(b1-3)Gal(b1-4)[Fuc(a1-3)]GlcNAc
Procedure, shortened: as §1

[8] = molecular target: GlcNAc(a1-6)Gal(b1-4)GlcNAc
Procedure, shortened: as §1

[9] = molecular target: GlcNAc(b1-2)Gal(b1-3)GalNAc
Procedure, shortened: as §1

[10] = molecular target: GlcNAc(b1-2)Man(a1-3)[GlcNAc(b1-2)Man(a1-6)]Man(b1-4)GlcNAc(b1-4)GlcNAc
Procedure, shortened: as §1

[11] = molecular target: GlcNAc(b1-2)Man(a1-3)[GlcNAc(b1-2)Man(a1-6)]Man(b1-4)GlcNAc(b1-4)[Fuc(a1-6)]GlcNAc
Procedure, shortened: as §1

[12] = molecular target: GlcNAc(b1-2)Man(a1-3)[GlcNAc(b1-4)][GlcNAc(b1-2)Man(a1-6)]Man(b1-4)GlcNAc(b1-4)GlcNAc
Procedure, shortened: as §1

[13] = molecular target: GlcNAc(b1-2)Man(a1-3)[GlcNAc(b1-4)][GlcNAc(b1-2)Man(a1-6)]Man(b1-4)GlcNAc(b1-4)[Fuc(a1-6)]GlcNAc
Procedure, shortened: as §1

[14] = molecular target: GlcNAc(b1-2)[GlcNAc(b1-4)]Man(a1-3)[GlcNAc(b1-2)Man(a1-6)]Man(b1-4)GlcNAc(b1-4)GlcNAc
Procedure, shortened: as §1

[15] = molecular target: GlcNAc(b1-2)[GlcNAc(b1-4)]Man(a1-3)[GlcNAc(b1-4)][GlcNAc(b1-2)Man(a1-6)]Man(b1-4)GlcNAc(b1-4)GlcNAc
Procedure, shortened: as §1

[16] = molecular target: GlcNAc(b1-2)[GlcNAc(b1-4)]Man(a1-3)[GlcNAc(b1-4)][GlcNAc(b1-2)[GlcNAc(b1-6)]Man(a1-6)]Man(b1-4)GlcNAc(b1-4)GlcNAc
Procedure, shortened: as §1

[17] = molecular target: GlcNAc(b1-2)[GlcNAc(b1-4)]Man(a1-3)[GlcNAc(b1-4)][GlcNAc(b1-2)[GlcNAc(b1-6)]Man(a1-6)]Man(b1-4)GlcNAc(b1-4)[Fuc(a1-6)]GlcNAc
Procedure, shortened: as §1

[18] = molecular target: GlcNAc(b1-2)[GlcNAc(b1-6)]Man(a1-6)[GlcNAc(b1-2)Man(a1-3)]Man(b1-4)GlcNAc(b1-4)GlcNAc
Procedure, shortened: as §1

[19] = molecular target: GlcNAc(b1-2)[GlcNAc(b1-6)]Man(a1-6)[GlcNAc(b1-2)Man(a1-3)]Man(b1-4)GlcNAc(b1-4)[Fuc(a1-6)]GlcNAc
Procedure, shortened: as §1

[20] = molecular target: GlcNAc(b1-2)[GlcNAc(b1-6)]Man(a1-6)[GlcNAc(b1-4)][GlcNAc(b1-2)Man(a1-3)]Man(b1-4)GlcNAc(b1-4)GlcNAc
Procedure, shortened: as §1

[21] = molecular target: GlcNAc(b1-3)Fuc
Procedure, shortened: as §1

[22] = molecular target: GlcNAc(b1-3)Gal
Procedure, shortened: as §1

[23] = molecular target: GlcNAc(b1-3)Gal(b1-3)GalNAc
Procedure, shortened: as §1

[24] = molecular target: GlcNAc(b1-3)Gal(b1-4)Glc
Procedure, shortened: as §1

[25] = molecular target: GlcNAc(b1-3)Gal(b1-4)GlcNAc
Procedure, shortened: as §1

[26] = molecular target: GlcNAc(b1-3)Gal(b1-4)GlcNAc(b1-2)Man(a1-3)[GlcNAc(b1-3)Gal(b1-4)GlcNAc(b1-2)Man(a1-6)]Man(b1-4)GlcNAc(b1-4)GlcNAc
Procedure, shortened: as §1

[27] = molecular target: GlcNAc(b1-3)Gal(b1-4)GlcNAc(b1-2)Man(a1-3)[GlcNAc(b1-3)Gal(b1-4)GlcNAc(b1-2)Man(a1-6)]Man(b1-4)GlcNAc(b1-4)[Fuc(a1-6)]GlcNAc
Procedure, shortened: as §1

[28] = molecular target: GlcNAc(b1-3)Gal(b1-4)GlcNAc(b1-2)[GlcNAc(b1-3)Gal(b1-4)GlcNAc(b1-6)]Man(a1-6)[GlcNAc(b1-3)Gal(b1-4)GlcNAc(b1-2)Man(a1-3)]Man(b1-4)GlcNAc(b1-4)GlcNAc
Procedure, shortened: as §1

[29] = molecular target: GlcNAc(b1-3)Gal(b1-4)GlcNAc(b1-3)Gal(b1-4)GlcNAc
Procedure, shortened: as §1

[30] = molecular target: GlcNAc(b1-3)Gal(b1-4)GlcNAc(b1-3)Gal(b1-4)GlcNAc(b1-2)Man(a1-3)[GlcNAc(b1-3)Gal(b1-4)GlcNAc(b1-3)Gal(b1-4)GlcNAc(b1-2)Man(a1-6)]Man(b1-4)GlcNAc(b1-4)GlcNAc
Procedure, shortened: as §1

[31] = molecular target: GlcNAc(b1-3)Gal(b1-4)GlcNAc(b1-3)Gal(b1-4)GlcNAc(b1-2)Man(a1-3)[GlcNAc(b1-3)Gal(b1-4)GlcNAc(b1-3)Gal(b1-4)GlcNAc(b1-2)Man(a1-6)]Man(b1-4)GlcNAc(b1-4)[Fuc(a1-6)]GlcNAc
Procedure, shortened: as §1

[32] = molecular target: GlcNAc(b1-3)Gal(b1-4)GlcNAc(b1-3)Gal(b1-4)GlcNAc(b1-2)[GlcNAc(b1-3)Gal(b1-4)GlcNAc(b1-3)Gal(b1-4)GlcNAc(b1-6)]Man(a1-6)[GlcNAc(b1-3)Gal(b1-4)GlcNAc(b1-3)Gal(b1-4)GlcNAc(b1-2)Man(a1-3)]Man(b1-4)GlcNAc(b1-4)[Fuc(a1-6)]GlcNAc
Procedure, shortened: as §1

[33] = molecular target: GlcNAc(b1-3)Gal(b1-4)GlcNAc(b1-3)Gal(b1-4)GlcNAc(b1-3)Gal(b1-4)GlcNAc(b1-2)Man(a1-3)[GlcNAc(b1-3)Gal(b1-4)GlcNAc(b1-3)Gal(b1-4)GlcNAc(b1-3)Gal(b1-4)GlcNAc(b1-2)Man(a1-6)]Man(b1-4)GlcNAc(b1-4)GlcNAc
Procedure, shortened: as §1

[34] = molecular target: GlcNAc(b1-3)Gal(b1-4)GlcNAc(b1-3)Gal(b1-4)GlcNAc(b1-3)Gal(b1-4)GlcNAc(b1-2)Man(a1-3)[GlcNAc(b1-3)Gal(b1-4)GlcNAc(b1-3)Gal(b1-4)GlcNAc(b1-3)Gal(b1-4)GlcNAc(b1-2)Man(a1-6)]Man(b1-4)GlcNAc(b1-4)[Fuc(a1-6)]GlcNAc
Procedure, shortened: as §1

[35] = molecular target: GlcNAc(b1-3)Gal(b1-4)GlcNAc(b1-3)Gal(b1-4)GlcNAc(b1-3)Gal(b1-4)GlcNAc(b1-2)[GlcNAc(b1-3)Gal(b1-4)GlcNAc(b1-3)Gal(b1-4)GlcNAc(b1-3)Gal(b1-4)GlcNAc(b1-6)]Man(a1-6)[GlcNAc(b1-3)Gal(b1-4)GlcNAc(b1-3)Gal(b1-4)GlcNAc(b1-3)Gal(b1-4)GlcNAc(b1-2)Man(a1-3)]Man(b1-4)GlcNAc(b1-4)[Fuc(a1-6)]GlcNAc
Procedure, shortened: as §1

[36] = molecular target: GlcNAc(b1-3)Gal(b1-4)GlcNAc(b1-3)Gal(b1-4)GlcNAc(b1-3)Gal(b1-4)GlcNAc(b1-3)Gal(b1-4)GlcNAc(b1-2)Man(a1-3)[GlcNAc(b1-3)Gal(b1-4)GlcNAc(b1-3)Gal(b1-4)GlcNAc(b1-3)Gal(b1-4)GlcNAc(b1-3)Gal(b1-4)GlcNAc(b1-2)Man(a1-6)]Man(b1-4)GlcNAc(b1-4)GlcNAc
Procedure, shortened: as §1

[37] = molecular target: GlcNAc(b1-3)Gal(b1-4)GlcNAc(b1-3)Gal(b1-4)GlcNAc(b1-3)Gal(b1-4)GlcNAc(b1-3)Gal(b1-4)GlcNAc(b1-2)Man(a1-3)[GlcNAc(b1-3)Gal(b1-4)GlcNAc(b1-3)Gal(b1-4)GlcNAc(b1-3)Gal(b1-4)GlcNAc(b1-3)Gal(b1-4)GlcNAc(b1-2)Man(a1-6)]Man(b1-4)GlcNAc(b1-4)[Fuc(a1-6)]GlcNAc
Procedure, shortened: as §1

[38] = molecular target: GlcNAc(b1-3)Gal(b1-4)GlcNAc(b1-3)Gal(b1-4)GlcNAc(b1-3)Gal(b1-4)GlcNAc(b1-3)Gal(b1-4)GlcNAc(b1-2)[GlcNAc(b1-3)Gal(b1-4)GlcNAc(b1-3)Gal(b1-4)GlcNAc(b1-3)Gal(b1-4)GlcNAc(b1-3)Gal(b1-4)GlcNAc(b1-6)]Man(a1-6)[GlcNAc(b1-3)Gal(b1-4)GlcNAc(b1-3)Gal(b1-4)GlcNAc(b1-3)Gal(b1-4)GlcNAc(b1-3)Gal(b1-4)GlcNAc(b1-2)Man(a1-3)]Man(b1-4)GlcNAc(b1-4)[Fuc(a1-6)]GlcNAc
Procedure, shortened: as §1

B1: Si Bti9 1b-HA (Solanum lycopersicum) (protein)
chain: MFESRPRSVLSLGVFVILVYLSSVPLPVNSQCNRGCDLALASFYVWRGSNLTLISEMFSTSIADIVSYNNRDNIPNQDSVIAGTRINIPFRCDCLNDGEVLGHAFPYRVKSGDTYDLVARNYSDLTTAQWMMKFNSYPENNIPNTVNLSVVVNCSCGNSDVSKDFGLFVTYPVRAEDNLTSVASAANVSEDIIRRYNPAAVSILDIGQGIIYIPGRDRNGNFPPLPTSTDGLSGGAKAPLFFNPAFLYKVVELKLAGRSRTSGYPYDVPDYAGYPYDVPDYALEVLFQ
With B1 the “glycan array binding signal (z-score)” value [1] was -0.3, the “glycan array binding signal (z-score)” value [2] was -0.387 and the “glycan array binding signal (z-score)” value [3] was -0.529. The “glycan array binding signal (z-score)” value [4] was -0.309, the “glycan array binding signal (z-score)” value [5] was -0.377 and the “glycan array binding signal (z-score)” value [6] was -0.231. The “glycan array binding signal (z-score)” value [7] was 0.086, the “glycan array binding signal (z-score)” value [8] was -0.574 and the “glycan array binding signal (z-score)” value [9] was -0.224. For the same binder, the “glycan array binding signal (z-score)” value [10] was -0.29, the “glycan array binding signal (z-score)” value [11] was 1.05 and the “glycan array binding signal (z-score)” value [12] was -0.497. For the same binder, the “glycan array binding signal (z-score)” value [13] was -0.354, the “glycan array binding signal (z-score)” value [14] was -0.568 and the “glycan array binding signal (z-score)” value [15] was -0.436. The “glycan array binding signal (z-score)” value [16] was -0.547, the “glycan array binding signal (z-score)” value [17] was -0.537 and the “glycan array binding signal (z-score)” value [18] was -0.198. For the same binder, the “glycan array binding signal (z-score)” value [19] was -0.253, the “glycan array binding signal (z-score)” value [20] was -0.366 and the “glycan array binding signal (z-score)” value [21] was -0.381. For the same binder, the “glycan array binding signal (z-score)” value [22] was -0.326, the “glycan array binding signal (z-score)” value [23] was -0.271 and the “glycan array binding signal (z-score)” value [24] was -0.571. For the same binder, the “glycan array binding signal (z-score)” value [25] was -0.5, the “glycan array binding signal (z-score)” value [26] was -0.03 and the “glycan array binding signal (z-score)” value [27] was 0.24. For the same binder, the “glycan array binding signal (z-score)” value [28] was 0.689, the “glycan array binding signal (z-score)” value [29] was -0.418 and the “glycan array binding signal (z-score)” value [30] was 2.7. For the same binder, the “glycan array binding signal (z-score)” value [31] was 0.176, the “glycan array binding signal (z-score)” value [32] was 0.039 and the “glycan array binding signal (z-score)” value [33] was -0.216. For the same binder, the “glycan array binding signal (z-score)” value [34] was 0.086, the “glycan array binding signal (z-score)” value [35] was -0.157 and the “glycan array binding signal (z-score)” value [36] was -0.077. For the same binder, the “glycan array binding signal (z-score)” value [37] was -0.141 and the “glycan array binding signal (z-score)” value [38] was -0.353.
